Laboratory results: PubChem BioAssay AID248 (DTP/NCI, 2004)
Inconclusive results and toxic doses are left out. Some entries of the source have several records that differ or are many. The list is limited to them. The source may hold further records. The records of an entry repeat one measurement across runs, samples, wells, individuals or studies.

Test system: L1210 leukemia ip in BDF1 mice, survival T/C
Assay: NCI In Vivo Anticancer Drug Screen. Data for tumor model L1210 Leukemia (intraperitoneal) in B6D2F1 (BDF1) mice
Details: endpoint: mean survival time, higher = longer survival
[1] = dose: 20.0 mg/kg/injection, schedule: Q01DX Z (ip), vehicle: carboxymethylcellulose (CMC)

Nc1nccs1
T/C (dose: 6.0 mg/kg/injection, schedule: Q04DX002 (ip), vehicle: saline with Tween-80): 97 % of control and 189 % of control

NC(Cc1ccc(N(CCCl)CCCl)cc1)C(=O)O (stereo not drawn)
T/C (dose: 10.0 mg/kg/injection, schedule: Q01DX Z (ip), vehicle: carboxymethylcellulose (CMC)): 117 % of control and 154 % of control

N#CCN(CC#N)CCCN(CC#N)CC#N
T/C (dose: 100.0 mg/kg/injection, schedule: Q01DX001 (ip), vehicle: saline with Tween-80): 94 % of control and 164 % of control

Nc1ncnc2c1ncn2C(C=O)OC(C=O)CO (stereo not drawn)
T/C [1]: 119 % of control and 172 % of control

NC1=NC(=S)C2N=C(N=Nc3ccc(C(=O)NC(CCC(=O)O)C(=O)O)cc3)N=C2N1 (stereo not drawn)
T/C (dose: 6.25 mg/kg/injection, schedule: Q01DX009 (ip), vehicle: Klucel (hydroxypropylcellulose) (HPC)): 109 % of control and 158 % of control

CS(=O)(=O)CCN(N=O)C(=N)N[N+](=O)[O-]
T/C (dose: 45.0 mg/kg/injection, schedule: Q01DX Z (ip), vehicle: methylcellulose (MC)): 122 % of control and 153 % of control

O=c1[nH]nc(Br)c(=O)n1C(c1ccccc1)c1ccccc1
T/C (dose: 100.0 mg/kg/injection, schedule: Q01DX001 (ip), vehicle: carboxymethylcellulose (CMC)): 92 % of control, 94 % of control, 156 % of control

N[C@H](C(=O)O)[C@@H]1CC(Cl)=NO1
T/C (dose: 3.12 mg/kg/injection, schedule: Q01DX009 (oral), vehicle: saline): 121 % of control and 154 % of control | T/C (dose: 8.0 mg/kg/injection, schedule: Q01DX009 (ip), vehicle: saline): 111 % of control and 150 % of control | T/C (dose: 100.0 mg/kg/injection, schedule: Q04DX003 (ip), vehicle: saline): 121 % of control and 179 % of control

O=[N+]([O-])c1cccc(N=Nc2ccc(O)cc2)c1
T/C (dose: 200.0 mg/kg/injection, schedule: Q01DX009 (ip), vehicle: Klucel (hydroxypropylcellulose) (HPC)): 88 % of control and 175 % of control

CCN(CC)CCNc1ccc(C)c2sc3ccccc3c(=O)c12 (tested in a mixture with another compound)
T/C (dose: 133.0 mg/kg/injection, schedule: Q01DX015 (ip), vehicle: saline): 114 % of control and 186 % of control

O=NN(CCCl)C(=O)Nc1ccc(CCCl)cc1
T/C (dose: 75.0 mg/kg/injection, schedule: Q01DX001 (ip), vehicle: carboxymethylcellulose (CMC)): 101 % of control and 319 % of control

C=C(COc1ccc(Cl)cc1)COc1ccc(Cl)cc1
T/C (dose: 400.0 mg/kg/injection, schedule: Q04DX002 (ip), vehicle: other): 89 % of control, 90 % of control, 181 % of control

CN=C(NN(C)C)c1ccc(NC(=O)c2ccc(C(=O)Nc3ccc(C(=NC)NN(C)C)cc3)cc2)cc1
T/C [1]: 123 % of control and 196 % of control

O=C1OC(=O)C2C3OC(C(Br)C3Br)C12 (stereo not drawn)
T/C (dose: 25.0 mg/kg/injection, schedule: Q04DX003 (ip), vehicle: saline): 103 % of control and 162 % of control

OCC1OC(n2nnc3c(=S)nc[nH]c32)C(O)C1O (stereo not drawn)
T/C (dose: 50.0 mg/kg/injection, schedule: Q01DX001 (ip), vehicle: saline): 94 % of control, 101 % of control, 166 % of control

Nc1nc(SN=Nc2ccc([As](=O)(O)O)cc2)c2[nH]cnc2n1
T/C (dose: 3.0 mg/kg/injection, schedule: Q01DX Z (ip), vehicle: other): 122 % of control and 154 % of control

CCCCCCOC(=O)C(N)Cc1ccc(O)c(N(CCCl)CCCl)c1 (stereo not drawn)
T/C (dose: 0.25 mg/kg/injection, schedule: Q01DX001 (ip), vehicle: saline): 120 % of control and 157 % of control | T/C (dose: 2.2 mg/kg/injection, schedule: Q01DX009 (ip), vehicle: saline): 116 % of control and 196 % of control

CC1CN1CC(O)C(O)CN1CC1C (stereo not drawn)
T/C (dose: 0.6 mg/kg/injection, schedule: Q01DX009 (ip), vehicle: saline): 121 % of control and 154 % of control | T/C (dose: 5.0 mg/kg/injection, schedule: Q04DX003 (ip), vehicle: saline): 105 % of control and 180 % of control | T/C (dose: 6.0 mg/kg/injection, schedule: Q01DX001 (ip), vehicle: saline): 102 % of control and 165 % of control
